Some of the results follow. Single values are uncertain, as repeats are few or missing.

Some test systems named below: G361; IPC-298; IST-MEL1; LB2518-MEL; LOXIMVI; MEL-HO; MZ2-MEL; MeWo; RPMI7951; RVH-421.
What all share (experiment): cell count relative to DMSO control; melanoma cells; higher = more viable cells
Common to all, as to conditions: library dose: standard library concentration; 72 h
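Also: cells treated in 1,536-well plates, then fixed and DAPI-stained, with nuclei counted from automated high-throughput microscope images.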

For the molecule `Cn1cnc2c(F)c(Nc3ccc(Br)cc3Cl)c(C(=O)NOCCO)cc21` [selumetinib] + C[C@@H]1CCN(C(=O)CC#N)C[C@@H]1N(C)c1ncnc2[nH]ccc12 [CP690550] (first compound 0.075 µM, partner dose 5 µM), the cell count was found to be 83.7% in the test on G361; 68% in the test on IPC-298; 94.5% in the test with IST-MEL1; 43.8% in the test on LB2518-MEL; 106% with LOXIMVI; 98% in the test with MEL-HO. Besides, the cell count came out at 78.9% with MZ2-MEL, 104% in the test on MeWo, 159% with RPMI7951 and 75% in the test with RVH-421.
For the molecule `Cn1cnc2c(F)c(Nc3ccc(Br)cc3Cl)c(C(=O)NOCCO)cc21` [selumetinib] + CCCCCCCCc1ccc(CCC(N)(CO)CO)cc1 [fingolimod] (first compound 0.075 µM, partner dose 10 µM), the cell count with G361 came out at 14%; with IPC-298, 26.7%; in the test on IST-MEL1, 3.89%; with LB2518-MEL it was 0.21%; in the test with LOXIMVI, 25.8%; with MEL-HO it was 26.8%. In addition, the cell count stood at 5.37% with MZ2-MEL, 33.1% in the test with MeWo, 1.03% in the test on RPMI7951 and 4.08% in the test with RVH-421.
Consider `COc1cc([C@@H]2c3cc4c(cc3[C@@H](O[C@@H]3O[C@@H]5CO[C@@H](C)O[C@H]5[C@H](O)[C@H]3O)[C@H]3COC(=O)[C@H]23)OCO4)cc(OC)c1O` [etoposide] + CCN(CC)CCCCNc1ncc2cc(-c3cc(OC)cc(OC)c3)c(NC(=O)NC(C)(C)C)nc2n1 [PD173074] (first compound 0.1 µM, partner dose 0.5 µM), for which the cell count was 113% in the test with G361; 96.1% with IPC-298; 101% with IST-MEL1; 95% in the test on LB2518-MEL; 87% with LOXIMVI; 116% in the test with MEL-HO. Also, the cell count with MZ2-MEL is 99.9%; with MeWo it was 82.9%; with RPMI7951 it was 111%; with RVH-421, 92.1%.
As to `Cn1cnc2c(F)c(Nc3ccc(Br)cc3Cl)c(C(=O)NOCCO)cc21` [selumetinib] + O=C(O)[C@@H]1[O][Sb](=[O])([O][Sb]2(=[O])[O][C@H]([C@H](O)CO)[C@H](O)[C@H](C(=O)O)[O]2)[O][C@H]([C@H](O)CO)[C@@H]1O [stibogluconate] (first compound 0.075 µM, partner dose 10 µM), the cell count stood at 55.8% in the test with G361; 48.2% in the test with IPC-298; 83.5% with IST-MEL1; 37.2% in the test on LB2518-MEL; 121% in the test on LOXIMVI; 81.8% in the test on MEL-HO. The cell count with MZ2-MEL stood at 56.9%; in the test on MeWo, 72.5%; in the test on RPMI7951, 106%; in the test with RVH-421, 245%.
As to `COc1cc([C@@H]2c3cc4c(cc3[C@@H](O[C@@H]3O[C@@H]5CO[C@@H](C)O[C@H]5[C@H](O)[C@H]3O)[C@H]3COC(=O)[C@H]23)OCO4)cc(OC)c1O` [etoposide] + CC(C)CCN1c2nc(Nc3cc(F)c(O)c(F)c3)ncc2N(C)C(=O)C1C [BID1870] (first compound 0.1 µM, partner dose 1 µM), the cell count in the test with G361 amounted to 50.3%; in the test on IPC-298, 54%; in the test on IST-MEL1, 83.9%; in the test with LB2518-MEL, 83%; in the test with LOXIMVI it was 89.1%; with MEL-HO it was 77.1%. Further, the cell count in the test with MZ2-MEL was 68.9%; in the test with MeWo it was 62.5%; in the test with RPMI7951, 77.9%; in the test with RVH-421, 94.9%.
For the molecule `C[C@]1(O)C[C@@H](c2nc(-c3ccc4ccc(-c5ccccc5)nc4c3)c3c(N)nccn32)C1` + C[C@]1(c2nc3c(C(N)=O)cccc3[nH]2)CCCN1 [Veliparib] (first compound 2 µM, partner dose 7 µM), the cell count amounted to 93.9% in the test with G361; 97.9% in the test on IPC-298; 104% with IST-MEL1; 92.9% in the test with LB2518-MEL; 74.5% in the test with LOXIMVI; 113% in the test with MEL-HO. Besides, the cell count came out at 106% with MZ2-MEL, 85.1% in the test on MeWo, 109% with RPMI7951 and 95.2% in the test on RVH-421.
Turning to `COc1cc([C@@H]2c3cc4c(cc3[C@@H](O[C@@H]3O[C@@H]5CO[C@@H](C)O[C@H]5[C@H](O)[C@H]3O)[C@H]3COC(=O)[C@H]23)OCO4)cc(OC)c1O` [etoposide] + C[C@@H](Oc1cc(-c2cnn(C3CCNCC3)c2)cnc1N)c1c(Cl)ccc(F)c1Cl [Crizotinib] (first compound 0.1 µM, partner dose 1 µM), the cell count with G361 worked out at 76.1%; in the test on IPC-298 it was 65.9%; with IST-MEL1, 95.3%; in the test with LB2518-MEL, 66.5%; in the test with LOXIMVI, 131%; with MEL-HO, 87.9%. The cell count in the test on MZ2-MEL came to 54%; with MeWo, 68.7%; in the test on RPMI7951, 86.1%; with RVH-421, 84.9%.
As to `CCN(CC)CCNC(=O)c1c(C)[nH]c(/C=C2\C(=O)Nc3ccc(F)cc32)c1C` [sunitinib] + O=C(Nc1cccc(Cl)c1)Nc1ncc(CCNc2ncnc3ccsc23)s1 [SNS314] (first compound 2 µM, partner dose 0.004 µM), the cell count with G361 is 52.9%; with IPC-298, 61.5%; with IST-MEL1, 55%; in the test with LB2518-MEL, 48%; in the test with LOXIMVI, 114%; with MEL-HO it was 84.8%. The cell count in the test with MZ2-MEL turned out to be 89.7%; with MeWo, 49.6%; in the test with RPMI7951, 49.5%; in the test with RVH-421 it was 68.1%.
With `CCN(CC)CCNC(=O)c1c(C)[nH]c(/C=C2\C(=O)Nc3ccc(F)cc32)c1C` [sunitinib] + COCC[n+]1c2c(n(Cc3cnccn3)c1C)C(=O)c1ccccc1C2=O [YM155] (first compound 2 µM, partner dose 0.002 µM), the cell count in the test with G361 is 88.4%; in the test on IPC-298, 69.5%; with IST-MEL1 it was 76.9%; with LB2518-MEL it was 29.8%; in the test with LOXIMVI, 174%; in the test with MEL-HO it was 118%. Moreover, the cell count in the test on MZ2-MEL was 39.4%; in the test on MeWo, 51%; in the test on RPMI7951, 54.2%; in the test with RVH-421, 110%.
Take `CCN(CC)CCNC(=O)c1c(C)[nH]c(/C=C2\C(=O)Nc3ccc(F)cc32)c1C` [sunitinib] + CC(C)C[C@H](NC(=O)[C@H](Cc1ccccc1)NC(=O)c1cnccn1)B(O)O [Bortezomib] (first compound 2 µM, partner dose 0.005 µM): the cell count with G361 came to 1.68%; with IPC-298, 14.3%; in the test on IST-MEL1, 13.6%; in the test on LB2518-MEL, 3.03%; with LOXIMVI it was 48.6%; in the test on MEL-HO, 47.5%. The cell count turned out to be 4.01% in the test with MZ2-MEL, 19.7% in the test with MeWo, 16.2% in the test with RPMI7951 and 2.93% in the test on RVH-421.

Values taken from the supplement of paper PMC4604168 (melanoma cell lines).
